Measurements published in publication PMC6372082.
No constants are given. Whether binding was seen depends on the method and setting. In cells and extracts the contact can be indirect. Some binding calls cover weakened binding; strength is not graded here. For some assays here: Tags and fused reporters may be left off the sequences shown.

The chains behind the UniProt entries cited, without tags or fusion partners. Where a name states a change or a piece, a line headed by the entry shows the natural chain unless it says otherwise. A line that says so, or that is headed by a name, gives the form on record, which may keep a tag or linker. Residues count along the entry.
UniProt Q96P20: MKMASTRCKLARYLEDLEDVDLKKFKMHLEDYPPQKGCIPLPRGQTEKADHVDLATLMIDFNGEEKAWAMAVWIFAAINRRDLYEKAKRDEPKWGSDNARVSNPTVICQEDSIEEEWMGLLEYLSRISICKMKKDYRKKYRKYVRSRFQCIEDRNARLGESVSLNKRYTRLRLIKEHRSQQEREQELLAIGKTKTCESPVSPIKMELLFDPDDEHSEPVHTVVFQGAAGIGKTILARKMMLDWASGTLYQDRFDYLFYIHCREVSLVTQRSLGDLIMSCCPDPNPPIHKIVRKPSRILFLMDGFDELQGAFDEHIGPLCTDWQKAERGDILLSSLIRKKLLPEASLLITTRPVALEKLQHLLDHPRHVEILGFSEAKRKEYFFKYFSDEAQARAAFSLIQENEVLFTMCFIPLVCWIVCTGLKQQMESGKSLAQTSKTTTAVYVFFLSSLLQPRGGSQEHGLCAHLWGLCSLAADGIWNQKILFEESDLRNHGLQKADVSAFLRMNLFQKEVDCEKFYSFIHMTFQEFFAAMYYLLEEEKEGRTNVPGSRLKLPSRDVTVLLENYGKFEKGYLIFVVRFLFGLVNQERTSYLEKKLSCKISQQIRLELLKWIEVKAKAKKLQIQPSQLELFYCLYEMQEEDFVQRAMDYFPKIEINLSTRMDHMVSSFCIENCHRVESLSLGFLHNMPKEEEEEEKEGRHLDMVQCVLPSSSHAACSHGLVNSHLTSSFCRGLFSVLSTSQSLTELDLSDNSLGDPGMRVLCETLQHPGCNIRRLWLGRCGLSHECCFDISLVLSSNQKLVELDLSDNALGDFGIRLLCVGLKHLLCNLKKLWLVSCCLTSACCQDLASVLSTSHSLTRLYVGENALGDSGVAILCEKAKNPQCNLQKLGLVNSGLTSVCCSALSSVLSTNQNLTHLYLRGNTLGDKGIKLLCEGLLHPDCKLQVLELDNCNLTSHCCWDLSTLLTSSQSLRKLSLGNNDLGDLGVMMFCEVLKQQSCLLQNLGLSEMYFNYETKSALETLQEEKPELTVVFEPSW
FLAG-tagged PYRIN domain of NLRP3: residues 1-93 of Q96P20
FLAG-NLRP3-NACHT: residues 220-536 of Q96P20
UniProt Q676U5: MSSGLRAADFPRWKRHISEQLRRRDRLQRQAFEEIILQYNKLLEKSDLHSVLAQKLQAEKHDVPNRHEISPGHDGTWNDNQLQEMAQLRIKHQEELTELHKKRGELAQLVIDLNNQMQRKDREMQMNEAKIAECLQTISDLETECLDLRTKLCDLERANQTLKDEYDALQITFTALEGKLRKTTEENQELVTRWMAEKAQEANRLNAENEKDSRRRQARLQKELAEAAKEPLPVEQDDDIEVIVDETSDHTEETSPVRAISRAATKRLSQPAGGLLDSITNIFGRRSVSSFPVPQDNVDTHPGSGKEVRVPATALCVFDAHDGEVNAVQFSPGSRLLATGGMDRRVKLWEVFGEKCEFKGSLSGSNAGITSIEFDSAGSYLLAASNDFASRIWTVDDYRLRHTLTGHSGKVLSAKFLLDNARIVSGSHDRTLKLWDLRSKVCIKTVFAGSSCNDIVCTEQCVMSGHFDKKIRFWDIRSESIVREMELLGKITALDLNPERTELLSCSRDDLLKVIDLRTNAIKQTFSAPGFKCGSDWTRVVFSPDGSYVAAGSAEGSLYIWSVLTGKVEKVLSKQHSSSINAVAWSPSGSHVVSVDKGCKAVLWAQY
UniProt Q14457: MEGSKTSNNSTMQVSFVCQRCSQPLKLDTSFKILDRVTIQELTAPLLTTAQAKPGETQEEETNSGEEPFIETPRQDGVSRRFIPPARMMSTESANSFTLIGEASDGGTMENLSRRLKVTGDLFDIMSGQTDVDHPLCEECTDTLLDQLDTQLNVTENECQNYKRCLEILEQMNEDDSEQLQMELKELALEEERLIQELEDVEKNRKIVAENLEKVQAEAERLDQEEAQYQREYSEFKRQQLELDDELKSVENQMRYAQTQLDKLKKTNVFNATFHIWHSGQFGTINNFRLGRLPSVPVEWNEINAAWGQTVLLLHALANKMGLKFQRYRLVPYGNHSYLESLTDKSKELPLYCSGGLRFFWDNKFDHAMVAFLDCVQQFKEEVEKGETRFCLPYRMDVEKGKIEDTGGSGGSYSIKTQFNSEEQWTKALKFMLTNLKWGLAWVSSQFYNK

How the values were obtained:
[1] = molecular target: p62, tag not named for the experiment (UniProt Q13501); test: co-IP; lysates of transfected HEK293T cells (some with co-expressed IRGM or NLRP3, some treated with chloroquine 50 uM, 5 hr); NP-40 lysis buffer, antibody at 4°C, Protein G Dynabeads, washed with ice cold PBS, western blot
[2] = molecular target: T1, IRGM, exogenous, tag not named for the experiment (human) (UniProt A1A4Y4); test: as above
T1 sequence: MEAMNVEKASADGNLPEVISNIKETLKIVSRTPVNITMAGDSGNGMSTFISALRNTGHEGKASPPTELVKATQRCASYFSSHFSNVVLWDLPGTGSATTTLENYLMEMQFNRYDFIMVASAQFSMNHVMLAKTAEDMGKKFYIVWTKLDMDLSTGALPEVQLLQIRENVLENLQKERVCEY

[3] = molecular target: NLRP3 (NACHT, LRR, and PYD domains containing protein 3), exogenous, no tag named (UniProt Q96P20); test: as above
GFP-IRGM (human) = molecular target: T2, GFP-IRGM (human) (UniProt A1A4Y4); test: as above
T2 sequence: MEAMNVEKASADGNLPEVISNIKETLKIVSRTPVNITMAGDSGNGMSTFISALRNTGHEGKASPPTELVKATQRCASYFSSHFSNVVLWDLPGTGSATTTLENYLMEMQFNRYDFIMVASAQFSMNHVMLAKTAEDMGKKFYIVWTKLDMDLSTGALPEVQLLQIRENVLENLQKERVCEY

GST-IRGM (human) = molecular target: T3, GST-IRGM (human) (UniProt A1A4Y4); test: pull-down; GST-IRGM on glutathione beads incubated with in vitro translated [35S]-Myc-NLRP3 in NETN-E buffer (50 mM Tris pH 8.0, 100 mM NaCl, 6 mM EDTA, 6 mM EGTA, 0.5% NP-40, 1 mM DTT), 2 h at 4°C; autoradiography; only the target purified
T3 sequence: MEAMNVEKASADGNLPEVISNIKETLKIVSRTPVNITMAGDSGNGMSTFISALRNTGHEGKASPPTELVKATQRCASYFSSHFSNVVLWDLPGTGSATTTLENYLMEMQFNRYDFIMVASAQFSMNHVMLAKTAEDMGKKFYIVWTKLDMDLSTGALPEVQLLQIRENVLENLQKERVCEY

[4] = molecular target: T4, endogenous IRGM (human (endogenous in THP-1)) (UniProt A1A4Y4); test: co-IP; endogenous proteins from THP-1 lysates (basal, LPS, LPS + nigericin, S. typhimurium, control or NLRP3 siRNA); NP-40 lysis buffer, Protein G Dynabeads, western blot
T4 sequence: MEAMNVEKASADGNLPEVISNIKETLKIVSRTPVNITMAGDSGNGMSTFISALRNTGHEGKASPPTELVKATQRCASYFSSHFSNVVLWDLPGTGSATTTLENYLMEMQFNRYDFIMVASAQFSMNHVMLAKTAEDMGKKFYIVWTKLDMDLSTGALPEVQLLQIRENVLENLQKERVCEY

[5] = molecular target: FLAG-tagged PYRIN domain of NLRP3 (UniProt Q96P20); test: co-IP; lysates of transfected HEK293T cells (some with co-expressed IRGM or NLRP3, some treated with chloroquine 50 uM, 5 hr); NP-40 lysis buffer, antibody at 4°C, Protein G Dynabeads, washed with ice cold PBS, western blot
[6] = molecular target: FLAG-tagged PYRIN domain of ASC (UniProt Q9ULZ3); test: as above
FLAG-NLRP3-NACHT = FLAG-NLRP3-NACHT (UniProt Q96P20); test: as above
[7] = molecular target: FLAG-tagged CARD domain of ASC (UniProt Q9ULZ3); test: as above
FLAG-p62 = FLAG-p62 (UniProt Q13501); test: as above
Flag-NLRP3 = Flag-NLRP3 (UniProt Q96P20); test: as above

**Q.** “ASC, exogenous, tag not named for the experiment (from UniProt Q9ULZ3 1-195)” was tested. Which binding [1] did it give?
**A.** The binding was “binds”.

**Q.** What about the binding [2] of the same molecule?
**A.** The binding was “binds”.

**Q.** With ATG16L1 (from UniProt Q676U5 1-607) as the molecule, how does the binding [3] read?
**A.** Its binding is “binds”.

**Q.** With Beclin-1 (from UniProt Q14457 1-450) as the molecule, how does the binding [3] read?
**A.** The binding was “binds”.

**Q.** Which binding (GFP-IRGM (human)) does the source give for “NLRP3 (NACHT, LRR, and PYD domains containing protein 3), exogenous, no tag named (from UniProt Q96P20 1-1036)” here?
**A.** The binding was “binds”.

**Q.** With “[35S]-labeled Myc-NLRP3 (from UniProt Q96P20 1-1036)” as the molecule, how does the binding (GST-IRGM (human)) read?
**A.** The binding was “binds”.

**Q.** With “endogenous ASC (apoptosis-associated speck-like protein containing a CARD) (from UniProt Q9ULZ3 1-195)” as the molecule, how does the binding [4] read?
**A.** The binding was “binds”.

**Q.** Which binding [4] does the source give for “endogenous NLRP3 (from UniProt Q96P20 1-1036)” here?
**A.** The binding was “binds”.

B1: IRGM, exogenous, tag not named for the experiment (protein, UniProt A1A4Y4 1-181)
chain: MEAMNVEKASADGNLPEVISNIKETLKIVSRTPVNITMAGDSGNGMSTFISALRNTGHEGKASPPTELVKATQRCASYFSSHFSNVVLWDLPGTGSATTTLENYLMEMQFNRYDFIMVASAQFSMNHVMLAKTAEDMGKKFYIVWTKLDMDLSTGALPEVQLLQIRENVLENLQKERVCEY
**Q.** What does the source list for B1?
**A.** binding [5]: binds weakly; binding [6]: binds; binding (FLAG-NLRP3-NACHT): binds; binding [7]: no binding

B2: GFP-IRGM (protein, UniProt A1A4Y4 1-181)
chain: MEAMNVEKASADGNLPEVISNIKETLKIVSRTPVNITMAGDSGNGMSTFISALRNTGHEGKASPPTELVKATQRCASYFSSHFSNVVLWDLPGTGSATTTLENYLMEMQFNRYDFIMVASAQFSMNHVMLAKTAEDMGKKFYIVWTKLDMDLSTGALPEVQLLQIRENVLENLQKERVCEY
**Q.** Which results are given for B2?
**A.** binding (FLAG-p62): binds; binding (Flag-NLRP3): binds
